# Test results as given in publication PMC4336329 (PLoS ONE, 2015).
# Out of some 310,000 compounds screened, about 14,000 (4.5%) showed an effect of 50% or more. Effects have a minus sign here. This is one part of the list.
# Biological target: human ether-à-go-go-related gene (hERG) potassium channel (human, UniProt Q12809)
# Experiment: primary screen, population patch clamp on CHO cells stably expressing hERG
# 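Note: peak tail current of the secondary pulse compared with the same well before compound.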
# Chain of human ether-à-go-go-related gene (hERG) potassium channel (Q12809 whole entry, looked up): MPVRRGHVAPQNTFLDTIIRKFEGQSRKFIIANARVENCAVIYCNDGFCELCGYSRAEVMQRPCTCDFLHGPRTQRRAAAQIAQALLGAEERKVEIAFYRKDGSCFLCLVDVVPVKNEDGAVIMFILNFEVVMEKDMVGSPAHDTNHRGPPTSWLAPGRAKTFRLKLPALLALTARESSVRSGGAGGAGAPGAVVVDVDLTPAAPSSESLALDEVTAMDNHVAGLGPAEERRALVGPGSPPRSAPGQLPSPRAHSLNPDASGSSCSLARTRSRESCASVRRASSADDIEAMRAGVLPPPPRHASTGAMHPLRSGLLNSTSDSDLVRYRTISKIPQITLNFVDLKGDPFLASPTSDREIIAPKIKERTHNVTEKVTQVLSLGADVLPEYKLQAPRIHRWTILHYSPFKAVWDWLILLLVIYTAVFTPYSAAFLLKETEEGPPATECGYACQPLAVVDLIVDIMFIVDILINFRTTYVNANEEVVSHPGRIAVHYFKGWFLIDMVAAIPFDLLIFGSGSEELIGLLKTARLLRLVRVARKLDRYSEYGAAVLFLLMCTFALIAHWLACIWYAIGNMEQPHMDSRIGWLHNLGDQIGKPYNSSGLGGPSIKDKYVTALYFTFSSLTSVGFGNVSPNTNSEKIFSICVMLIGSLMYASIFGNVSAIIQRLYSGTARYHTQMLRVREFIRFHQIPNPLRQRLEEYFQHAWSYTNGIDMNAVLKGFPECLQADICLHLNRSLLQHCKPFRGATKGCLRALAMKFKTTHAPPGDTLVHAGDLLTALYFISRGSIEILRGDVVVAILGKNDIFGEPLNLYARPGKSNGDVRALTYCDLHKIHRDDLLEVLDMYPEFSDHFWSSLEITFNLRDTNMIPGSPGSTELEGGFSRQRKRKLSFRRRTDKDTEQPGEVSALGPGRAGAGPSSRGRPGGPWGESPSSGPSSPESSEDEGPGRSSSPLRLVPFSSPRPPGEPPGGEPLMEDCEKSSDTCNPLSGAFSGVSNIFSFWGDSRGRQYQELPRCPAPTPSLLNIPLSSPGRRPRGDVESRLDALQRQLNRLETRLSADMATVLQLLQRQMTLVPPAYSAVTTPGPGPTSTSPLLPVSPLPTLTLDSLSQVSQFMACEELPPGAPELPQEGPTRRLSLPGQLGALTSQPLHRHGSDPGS
row,Compound,"hERG current change (%, negative = inhibition) at 10uM [%]"
1,Cc1ccc(NC(=O)COC(=O)C2CSC3(C)CCC(=O)N23)cc1S(=O)(=O)N1CCOCC1 (stereo not drawn),-31.3
2,Cc1ccc(Cl)c(OCC(=O)Nc2ccccc2C(=O)NC2CC2)c1,3.5
3,CN1C(=O)C(=Cc2ccc(N(C)C)c([N+](=O)[O-])c2)C(=O)N(C)C1=O,1.01
4,COC(=O)CCC(=O)N1CCCC(CO)(Cc2ccccc2)C1 (stereo not drawn),-11.3
5,COc1ccc(CCN2C(=O)CSC2c2ccc(OC)c(OC)c2)cc1OC (stereo not drawn),-8.22
6,Cn1cnnc1SCC(=O)Nc1ccc(S(=O)(=O)N2CCOCC2)cc1,13.7
7,COc1ccc(-c2nnc(NC(=O)c3ccc4c(c3)OCCO4)o2)cc1,23.3
8,CSc1ncccc1C(=O)OCC(=O)N1CC(=O)Nc2ccccc21,8.21
9,C=CCNC(=O)c1ccccc1NC(=O)Cc1ccccc1[N+](=O)[O-],-9.54
10,COCCCn1cnc2c(c1=O)c1nc3ccccc3nc1n2-c1ccc(C)cc1,-37
11,Nc1nonc1-n1nnc(C(=O)N/N=C/c2ccccc2O)c1CN1CCCC1,-13.3
12,CC(NC(=O)c1cc(-c2ccccc2)nc2ccccc12)C1CCCO1 (stereo not drawn),-11
13,CC(=O)N1N=C(c2ccc3ccccc3c2)OC12CCCC2,2.54
14,CCOC(=O)c1c(C)[nH]c(C(=O)CSc2nnc(C3CC3)n2N)c1C,4.75
15,CCN(CC)C(=O)c1ccccc1NS(C)(=O)=O,26.3
16,CC(=O)Nc1nc(C)c(-c2csc([NH2+]c3ccc(S(N)(=O)=O)cc3)n2)s1.[Br-],4.21
17,COc1ccccc1N=Nc1c(O)[nH]c(=S)[nH]c1=O,20.6
18,O=C1c2nc3ccccn3c2C(=O)N1Cc1ccccc1,7.96
19,O=C(CSc1n[nH]c(=O)[nH]c1=O)Nc1ccccc1C(=O)c1ccccc1,5.14
20,Cc1cc(C)c(NC(=O)C(C)(C)C)c(Cl)c1,-4.35
21,Cc1ccc(C(=O)NCCCNC(=O)c2ccccc2F)cn1,16.9
22,Cc1ccccc1-n1cc(CNCc2c(C(=O)N(C)C)nc3ccc(Cl)cn23)cn1,-7.4
23,CN(Cc1nccn1C)C(=O)C1CCC(=O)N(Cc2cccc(C(F)(F)F)c2)C1 (stereo not drawn),-9.93
24,Cc1cc2c(C)nc(N/N=C/c3ccc([N+](=O)[O-])cc3)nc2o1,-16.2
